Measured values reported in EPA's CvTdb concentration-time database.
This continues a long series; more values of the same kind are listed elsewhere.

How the values were obtained:
Rat [1] = experiment: concentration in liver after dosing; details: 2208 h; dosed: 3,3',4,4',5-pentachlorobiphenyl; 1000 mg/kg; oral; Female; Harlan Sprague Dawley
Rat [2] = experiment: concentration in liver after dosing; details: 3 h; dosed: 3,3',4,4',5-pentachlorobiphenyl; 1000 mg/kg; oral; Female; F344
Rat [3] = experiment: concentration in plasma after dosing; details: 8184 h; dosed: 3,3',4,4',5-pentachlorobiphenyl; 1000 mg/kg; oral; Male; Harlan Sprague Dawley
Rat [4] = experiment: concentration in liver after dosing; details: 8184 h; dosed: 3,3',4,4',5-pentachlorobiphenyl; 1000 mg/kg; oral; Male; Harlan Sprague Dawley
Rat [5] = experiment: concentration in liver after dosing; details: 288 h; dosed: 3,3',4,4',5-pentachlorobiphenyl; 1000 mg/kg; oral; Female; Harlan Sprague Dawley
Rat [6] = experiment: concentration in liver after dosing; details: 8184 h; dosed: 3,3',4,4',5-pentachlorobiphenyl; 1000 mg/kg; oral; Male; Harlan Sprague Dawley; remark: listed apart in the source
Rat [7] = experiment: concentration in liver after dosing; details: 3 h; dosed: 3,3',4,4',5-pentachlorobiphenyl; 1000 mg/kg; oral; Female; F344; remark: listed apart in the source
Rat [8] = experiment: concentration in liver after dosing; details: 2 h; dosed: 3,3',4,4',5-pentachlorobiphenyl; 1000 mg/kg; oral; Female; F344
Rat [9] = experiment: concentration in liver after dosing; details: 2208 h; dosed: 3,3',4,4',5-pentachlorobiphenyl; 1000 mg/kg; oral; Female; Harlan Sprague Dawley; remark: listed apart in the source
Rat [10] = experiment: concentration in liver after dosing; details: 2880 h; dosed: 3,3',4,4',5-pentachlorobiphenyl; 1000 mg/kg; oral; Female; Harlan Sprague Dawley
Rat [11] = experiment: concentration in liver after dosing; details: 24 h; dosed: 3,3',4,4',5-pentachlorobiphenyl; 1000 mg/kg; oral; Female; F344
Rat [12] = experiment: concentration in liver after dosing; details: 120 h; dosed: 3,3',4,4',5-pentachlorobiphenyl; 1000 mg/kg; oral; Female; Harlan Sprague Dawley
Rat [13] = experiment: concentration in liver after dosing; details: 24 h; dosed: 3,3',4,4',5-pentachlorobiphenyl; 1000 mg/kg; oral; Female; F344; remark: listed apart in the source
Rat [14] = experiment: concentration in liver after dosing; details: dosed: 3,3',4,4',5-pentachlorobiphenyl, 1000 mg/kg, oral
Rat [15] = experiment: concentration in brain after dosing; details: 2 h; dosed: 76231-76-0; 3.0 mg/kg; iv; Male; F344
Rat [16] = experiment: concentration in plasma after dosing; details: 0.5 h; dosed: 76231-76-0; 3.0 mg/kg; iv; Female; F344
Rat [17] = experiment: concentration in brain after dosing; details: 20 min; dosed: 76231-76-0; 3.0 mg/kg; iv; Male; F344
Rat [18] = experiment: concentration in brain after dosing; details: 2 min; dosed: alpha/beta-Thujone mixture; 50 mg/kg; oral; Female; F344
Rat [19] = experiment: concentration in brain after dosing; details: 5 min; dosed: alpha/beta-Thujone mixture; 25 mg/kg; oral; Female; F344
Rat [20] = experiment: concentration in plasma after dosing; details: 6 h; dosed: alpha/beta-Thujone mixture; 25 mg/kg; oral; Female; F344
Rat [21] = experiment: concentration in plasma after dosing; details: 1.5 h; dosed: alpha/beta-Thujone mixture; 50 mg/kg; oral; Female; F344
Rat [22] = experiment: concentration in plasma after dosing; details: 5 min; dosed: alpha/beta-Thujone mixture; 25 mg/kg; oral; Male; F344
Rat [23] = experiment: concentration in brain after dosing; details: 10 min; dosed: 76231-76-0; 3.0 mg/kg; iv; Female; F344
Rat [24] = experiment: concentration in plasma after dosing; details: 3 h; dosed: alpha/beta-Thujone mixture; 25 mg/kg; oral; Male; F344
Rat [25] = experiment: concentration in brain after dosing; details: 0.75 h; dosed: 76231-76-0; 3.0 mg/kg; iv; Female; F344
Rat [26] = experiment: concentration in brain after dosing; details: 6 h; dosed: alpha/beta-Thujone mixture; 25 mg/kg; oral; Male; F344
Rat [27] = experiment: concentration in plasma after dosing; details: 20 min; dosed: 76231-76-0; 3.0 mg/kg; iv; Male; F344
Rat [28] = experiment: concentration in plasma after dosing; details: 0.5 h; dosed: alpha/beta-Thujone mixture; 50 mg/kg; oral; Male; F344
Rat [29] = experiment: concentration in brain after dosing; details: 5 min; dosed: 76231-76-0; 3.0 mg/kg; iv; Female; F344
Rat [30] = experiment: concentration in plasma after dosing; details: 6 h; dosed: 76231-76-0; 3.0 mg/kg; iv; Male; F344
Rat [31] = experiment: concentration in brain after dosing; details: 6 h; dosed: alpha/beta-Thujone mixture; 50 mg/kg; oral; Male; F344
Rat [32] = experiment: concentration in plasma after dosing; details: 2 min; dosed: alpha/beta-Thujone mixture; 25 mg/kg; oral; Female; F344
Rat [33] = experiment: concentration in brain after dosing; details: 2 min; dosed: alpha/beta-Thujone mixture; 25 mg/kg; oral; Female; F344
Rat [34] = experiment: concentration in plasma after dosing; details: 5 min; dosed: alpha/beta-Thujone mixture; 50 mg/kg; oral; Female; F344
Rat [35] = experiment: concentration in plasma after dosing; details: 5 min; dosed: 76231-76-0; 3.0 mg/kg; iv; Female; F344
Rat [36] = experiment: concentration in plasma after dosing; details: 6 h; dosed: 76231-76-0; 3.0 mg/kg; iv; Male; F344; remark: listed apart in the source
Rat [37] = experiment: concentration in brain after dosing; details: 1 h; dosed: 76231-76-0; 3.0 mg/kg; iv; Male; F344

Clc1ccc(-c2cc(Cl)c(Cl)c(Cl)c2)cc1Cl [3,3',4,4',5-pentachlorobiphenyl]
Details	concentration in liver [pg/g]	concentration in plasma [ng/mL]
Rat [1]	2280	–
Rat [2]	7350	–
Rat [3]	–	0.0233
Rat [4]	679	–
Rat [5]	8280	–
Rat [6]	1350	–
Rat [7]	7700	–
Rat [8]	3820	–
Rat [9]	2170	–
Rat [10]	4090	–
Rat [11]	19700	–
Rat [12]	9040	–
Rat [13]	18300	–

concentration in liver [pg/g], Rat [14]
Details	Female	Male
1 h, F344	767	–
1.5 h, F344	1780	–
2 h, F344	2670	–
3 h, F344	12200	–
8 h, F344	12900	–
16 h, F344	22000	–
24 h, F344	20100	–
120 h, Harlan Sprague Dawley	12000	–
288 h, Harlan Sprague Dawley	8010	–
768 h, Harlan Sprague Dawley	6650	–
1464 h, Harlan Sprague Dawley	2190	–
2208 h, Harlan Sprague Dawley	2020	–
2880 h, Harlan Sprague Dawley	3060	–
3984 h, F344	1530	2200
5088 h, F344	1590	–
6000 h, F344	849	–
6000 h, Harlan Sprague Dawley	1450	–
6744 h, Harlan Sprague Dawley	562	–
7416 h, F344	465	416
7416 h, Harlan Sprague Dawley	–	659
8184 h, F344	654	–
8184 h, Harlan Sprague Dawley	–	382
8760 h, Harlan Sprague Dawley	–	676

CC(C)[C@]12CC(=O)[C@H](C)[C@H]1C2 [alpha-Thujone]
Details	concentration in brain [ng/g]	concentration in plasma [ng/mL]
Rat [15]	50.6	–
Rat [16]	–	69.6
Rat [17]	989	–
Rat [18]	16.5	–
Rat [19]	597	–
Rat [20]	–	7.17
Rat [21]	–	262
Rat [22]	–	271
Rat [23]	2800	–
Rat [24]	–	98
Rat [25]	201	–
Rat [26]	23.1	–
Rat [27]	–	265
Rat [28]	–	304
Rat [29]	3090	–
Rat [30]	–	21.4
Rat [31]	160	–
Rat [32]	–	12.9
Rat [33]	45	–
Rat [34]	–	172
Rat [35]	–	647
Rat [36]	–	22.5
Rat [37]	102	–
